Data: paper PMC3026800, “Mechanism of Inhibition of Enveloped Virus Membrane Fusion by the Antiviral Drug Arbidol” (PLoS ONE, 2011)

System: HCVpp
Experiment: Membrane fusion assay: lipid mixing between pseudoparticles and R18-labeled liposomes
Conditions: for Inhibition of fusion with Arb: HCVpp 1a, 37°C, pH 5.0

SMILES: CCOC(=O)c1c(CSc2ccccc2)n(C)c2cc(Br)c(O)c(CN(C)C)c12.Cl [Arb, 1H-indole-3-carboxylic acid, 6-bromo-4-[(dimethylamino)-methyl]-5-hydroxy-1-methyl-2-[(phenylthio)methyl]-, ethyl ester, monohydrochloride]
- Fusion inhibition (Arb 11.3 µM pre-incubated with either HCVpp or liposomes): ca. 10%
- Inhibition of fusion with Arb (Arb 11.3 µM pre-incubated with HCVpp 1 min, then liposomes 1 min): 5±7%
- Inhibition of fusion with Arb (Arb 11.3 µM pre-incubated with HCVpp/liposomes together 2 min): 46±12%
- Inhibition of fusion with Arb (Arb 11.3 µM pre-incubated with liposomes 1 min, then HCVpp 1 min): 13±11%
